According to PubChem BioAssay AID1259400 (National Center for Advancing Translational Sciences (NCATS), 2018):
About 2,100 (0.6%) of roughly 350,000 compounds were called active. Inconclusive results, whose numbers are uncertain, are shown with a selection of clear calls.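 The calls were made as follows: active = activity change of -60% or lower, but not beyond a set lower limit; inconclusive = change between -60% and -40%, or beyond the set limit; inactive = change above -40%.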

molecular target: Relaxin receptor 1 (Homo sapiens) (UniProt Q9HBX9); assay: qHTS Assay for Antagonists of the Relaxin Receptor RXFP1; conditions: HEK293-RXFP1, relaxin-stimulated cAMP HTRF, 30 min; at 57.5 µM; active compounds read low
Excerpt: The relaxin hormone is involved in the variety of biological functions in normal tissues and diseases. The role of relaxin is well-established in female reproduction and parturition, mammary gland and endometrial development, maintenance of myometrial quiescence during pregnancy. Relaxin signaling through its G protein-coupled receptor (GPCR) RXFP1 results in ECM remodeling through regulation of collagen deposition, cell invasiveness, proliferation and overall tissue homeostasis. […] Recombinant human relaxin (rhRlx) is currently being tested in clinical trials as a protective agent in congestive heart failure, in treating severe preeclampsia, and as an anti-fibrotic agent in various organs. […] Upon relaxin binding RXFP1 activation leads to the activation of adenylate cyclase (AC) via G?s. cAMP will activate PKA, which phosphorylates many signaling proteins. Thus, detection of cAMP increase is an easy and reliable indication of relaxin receptor activation. To screen for antagonists of the relaxin receptor, a HEK293T cell line stably transfected with RXFP1 was used. RXFP1 activation by relaxin in presence of various concentrations of tested compounds was assayed by changes in cAMP levels as detected with a time-resolved fluorescence energy transfer (TR-FRET) cAMP detection kit.
For the primary screening, we used HTRF(R) (Homogenous Time-Resolved Fluorescence) cAMP HiRange assay (Cisbio Bioassays, 62AM6PEJ). Presence of cAMP in the cell lysate disrupts binding between the Cryptate-labeled anti-cAMP and d2-labeled cAMP pair, leading to a decrease in TR-FRET signal. The libraries were screened at two doses (57microM and 11microM), followed by a confirmation of the hits at 7-point serial dilution in the range of final concentrations [57microM - 78nM]. Data were normalized to the controls for basal activity (buffer only) and 100% activity (5 nM porcine relaxin). The EC50 values were determined from concentration-response data modeled with the standard Hill equation. NCGC Assay Protocol Summary: HiHEK (Hawaiian HEK293 LGR7 stably transfected with human RXFP1) were grown in the following media: DMEM+10%FBS+Pen/Strep + Geneticin (1mg/ml). For the assay, the cells were seeded in DMEM+Pen/Strep (with no serum & selective antibiotics) at 2,100 cells/ 3microl/well with MultiDrop Combi dispenser (Thermo Scientific, Logan, UT) onto white tissue culture treated solid bottom1536-well plates (Greiner #789173-F) and allowed to attach/recover overnight at 37 degrees C, 5% CO2. Next, 23nl/well of compound solutions in DMSO were transferred into wells with a pintool (Kalypsis, San Diego, CA). […] EC80 (relaxin at 50pM final concentration) was dispensed to the rest of the plate except columns 1&2 which were used as a negative control (EC0, buffer only), 1microl/well also. The cells were stimulated by relaxin in the presence of compounds for 30 minutes at 37 degrees C, 5% CO2. The detection reagents were prepared individually by dilution in Lysis buffer (supplied with the assay kit) just prior to dispensing. 1microl/well of cAMP-d2 and 1microl/well anti-cAMP-Eu3+-Cryptate antibodies were added simultaneously with BioRAPTR FRDtrade mark Workstation (Beckman Coulter). The plates were incubated at ambient temperature for 30 minutes and, then, FRET signal was read on Envision plate reader (PerkinElmer, Waltham, MA), at wavelengths 340nm (excitation), 615nm & 665nm (emission of donor and acceptor channels respectively).
% is scaled to controls: 0 for no effect and ±100 for the full control effect.

UniProt Q9HBX9, sequence (Q9HBX9 whole entry, looked up): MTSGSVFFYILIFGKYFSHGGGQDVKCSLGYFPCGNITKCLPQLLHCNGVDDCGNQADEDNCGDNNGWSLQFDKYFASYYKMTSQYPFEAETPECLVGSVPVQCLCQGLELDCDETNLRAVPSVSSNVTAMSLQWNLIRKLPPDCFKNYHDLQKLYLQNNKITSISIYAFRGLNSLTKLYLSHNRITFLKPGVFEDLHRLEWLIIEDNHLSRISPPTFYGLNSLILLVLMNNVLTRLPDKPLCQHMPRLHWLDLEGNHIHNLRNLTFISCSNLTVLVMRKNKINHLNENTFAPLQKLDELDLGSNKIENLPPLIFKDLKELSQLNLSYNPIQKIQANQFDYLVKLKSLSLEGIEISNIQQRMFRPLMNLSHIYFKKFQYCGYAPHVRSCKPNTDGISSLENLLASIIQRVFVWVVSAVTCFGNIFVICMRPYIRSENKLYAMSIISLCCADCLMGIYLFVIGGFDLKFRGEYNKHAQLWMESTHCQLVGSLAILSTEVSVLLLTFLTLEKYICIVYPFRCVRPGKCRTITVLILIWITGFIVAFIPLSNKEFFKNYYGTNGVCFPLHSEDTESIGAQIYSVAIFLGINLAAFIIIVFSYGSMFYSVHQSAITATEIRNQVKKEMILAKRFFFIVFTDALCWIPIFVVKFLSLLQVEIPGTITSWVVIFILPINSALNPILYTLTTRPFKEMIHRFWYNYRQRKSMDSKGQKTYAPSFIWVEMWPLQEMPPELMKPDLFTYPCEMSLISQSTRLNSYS

| SMILES | activity change, negative = inhibition |
| --- | --- |
| CCCCN1C(=O)c2[nH]nc(-c3ccccc3O)c2C1c1ccc(OCc2ccccc2)c(OC)c1 (stereo not drawn) | inconclusive: -50.9% |
| CCOC(=O)/C(C#N)=C\c1ccc(CC)s1 | inactive: 4.84% |
| COc1ccc([N+](=O)[O-])c(S(=O)(=O)c2ccccc2)n1 | inconclusive: -52.3% |
| O=C(CCCCCn1c(=S)[nH]c2cc3c(cc2c1=O)OCO3)N1CCN(c2ccccc2)CC1 | inconclusive: -48.4% |
| C=CCn1c(Sc2ncc([N+](=O)[O-])s2)n[nH]c1=O | active: -80.4% |
| Cc1ccc(NC2CCCCC2NS(=O)(=O)c2ccccc2)c(C)c1 (stereo not drawn) | inconclusive: -42.3% |
| O=C(CCCn1c(=S)[nH]c2ccccc2c1=O)NC1CCCCC1 | active: -111% |
| CCN(CC)CCC=C(c1cccs1)c1cccs1 | inconclusive: -43.3% |
| Cc1cccc(C(=O)Nc2nc(-c3nnn(-c4cc(C)ccc4C)c3C)ns2)c1 | inconclusive: -47.9% |
| Cc1ccccc1C(=O)N1CCN(c2ccc(NC(=S)NC(=O)c3ccco3)cc2)CC1 | inconclusive: -45.5% |
| O=C1NC(=S)NC(=O)C1Nc1ccc(Cl)cc1 | inconclusive: -53.7% |
| Cc1nc(CCNC(=O)c2cc(COc3ccc(F)cc3Cl)on2)sc1C | inconclusive: -45.3% |
| Cc1cc(C)cc(Nc2cc(C)nc3nc(-c4ccco4)nn23)c1 | inconclusive: -40.3% |
| Cc1ccc(C)c(-n2c3nc(=O)[nH]c(=O)c-3cc3cc([N+](=O)[O-])ccc32)c1 | inconclusive: -40.8% |
| O=C(CS)Nc1ccc2ccccc2c1 | active: -102% |
| O=C(CN1C(=O)/C(=C/c2ccc(F)cc2)SC1=S)NC1CCS(=O)(=O)C1 (stereo not drawn) | active: -67.3% |
| O=C(NCC(c1ccco1)S(=O)(=O)c1ccc(Cl)cc1)c1ccc(C(F)(F)F)cc1 (stereo not drawn) | inconclusive: -47% |
| COc1ccc(C(=O)N(Cc2ccco2)Cc2ccccc2F)cc1Cl | inconclusive: -52.4% |
| CCN(c1ccccc1)c1ncnc2c1cnn2-c1ccc(OC)cc1 | inconclusive: -47.4% |
| CCOC(=O)C(C)Sc1nc(-c2ccco2)cc(C(F)(F)F)c1C#N (stereo not drawn) | inactive: -18.9% |
| O=C(CCN1C(=O)/C(=C/c2cccs2)SC1=S)Nc1ccc(C(=O)O)c(O)c1 | inconclusive: -54.7% |
| COc1ccc(-n2cc3c(-c4cccc(Br)c4)nnc(C)c3n2)cc1 | inconclusive: -47.8% |

| SMILES | activity change, negative = inhibition |
| --- | --- |
| Cc1cc(C)c2cc(C#N)c(N3CCCN(S(=O)(=O)c4ccccc4)CC3)nc2c1 | inactive: -8.24% |
| COc1ccc(C(=O)Nc2ccc(-c3nc4cc(C)ccc4o3)c(O)c2)cc1 | inactive: 4.23% |
| COc1ccc(NC(=O)CCCc2nnc3n(C(C)C)c(=O)c4sccc4n23)cc1Cl | inactive: -5.87% |
| Oc1ccccc1CNc1ncc(Br)cc1Br | inconclusive: -43.1% |
| COc1ccc(C(C(=O)NCC2CCCO2)N(C(=O)CNC(=O)c2cccs2)c2ccccc2)cc1OC (stereo not drawn) | inconclusive: -54.3% |
| O=C(/C=C/c1ccco1)N1CCC(Cc2ccccc2)CC1 | inconclusive: -45.1% |
| O=C1CC(C(=O)Nc2ccc(F)cc2)n2cnnc2N1 (stereo not drawn) | inconclusive: -40.8% |
| Cc1ccc(NC(=O)c2ccc3nc(Cc4ccccc4)oc3c2)cc1F | inconclusive: -43% |
| O=C(N/N=C/c1cc(Br)c(O)c(Br)c1)c1cc2c(ccc3ccccc32)o1 | active: -100% |
| S=c1[nH]nc(-c2ccc(Br)cc2)n1-c1ccc2c(c1)OCCO2 | inconclusive: -41% |
| Cc1cccc(S(=O)C(c2ccccc2)c2ccccc2)c1 (stereo not drawn) | inconclusive: -49.6% |
| Cn1nc(CC(=O)NC2CCCCCCCCCCC2)c2ccccc2c1=O | inactive: 0.588% |
| COC(=O)c1ccc(NC(=O)c2nc(S(=O)(=O)Cc3cccc(C)c3)ncc2Cl)cc1 | inconclusive: -54.1% |
| CC1(C)OC(=O)C(=Cc2ccc(-c3ccc(S(N)(=O)=O)cc3)o2)C(=O)O1 | active: -105% |
| Cc1cccc(C)c1NC(=O)CN(C)C(=O)c1ccccc1Sc1ccccc1C#N | inactive: -0.329% |
| COCCCNCCCOc1ccc(Cl)cc1C(C)(C)C | inconclusive: -46.8% |
| CCC(=O)Nc1ccc2nc(SCC(=O)N3CCc4ccccc43)sc2c1 | inconclusive: -43.3% |
| CCc1ccc(OCc2nc(-c3ccccn3)no2)c(Br)c1 | inactive: -7.1% |
| CN(CC1CCCN(CCc2cccc(C(F)(F)F)c2)C1)C(=O)c1ccco1 (stereo not drawn) | inactive: -4.65% |
| O=C(N/N=C/c1sc(=O)[nH]c1-[n+]1ccc2ccccc2c1)c1ccccc1[O-] | inconclusive: -42.9% |
| CC(C)(C)C(=O)Nc1sc(-c2ccccc2)cc1C(=O)O | inactive: -0.731% |
| COc1cc(C2c3c(oc4ccccc4c3=O)C(=O)N2c2nccs2)ccc1O (stereo not drawn) | active: -105% |

| SMILES | activity change, negative = inhibition |
| --- | --- |
| O=c1c2cnn(-c3ccccc3)c2nc(-c2ccco2)n1-c1ccccc1 | inconclusive: -41.1% |
| O=C(CCN1CCc2ccccc2CC1)c1ccc2c(c1)OCCO2 | active: -64.7% |
| CN(C)CCCNc1ncnc2oc(-c3ccccc3)c(-c3ccccc3)c12 | inconclusive: -45.4% |
| COc1cccc(C(=O)Nc2ccc(C(F)(F)F)n(C)c2=O)c1 | inactive: -8.92% |
| Oc1[nH]c(=S)sc1/C=C1\C(c2ccccc2)=Nc2ccccc21 | inconclusive: -40.3% |
| O=[N+]([O-])c1cccc(N/N=C/c2cccc(O)c2O)c1 | active: -86.8% |
| Cc1ccc(N(C)C(=O)c2ccc3c(Cl)c4c(nc3c2)CCC4)cc1C | active: -88.8% |
| CCOc1ccc2nc(Cl)c(/C=C/C(=O)c3ccco3)cc2c1 | inconclusive: -54.5% |
| Cc1ccccc1NC(=O)c1c(C)[nH]c(=S)c(C#N)c1-c1ccco1 | inconclusive: -55.9% |
| Cc1ccc(C)c(NC(=O)C(Cc2ccccc2)n2cccc2)c1 (stereo not drawn) | inconclusive: -49% |
| O=C(COc1ccc2c3c(c(=O)oc2c1)CCCC3)NCc1cccnc1 | inactive: -3.41% |
| Cc1nc(N/N=C/c2ccccn2)sc1C | inconclusive: -48.9% |
| CNC(=S)N(Cc1cc2cc(C)cc(C)c2[nH]c1=O)C1CCCC1 | inconclusive: -49.4% |
| Cc1ccc(N2CCN(S(=O)(=O)N3CCCCC3)CC2)c(C)c1 | active: -70.3% |
| COc1ccc(C(=O)Nc2ccc(Cl)c(S(=O)(=O)Nc3ccccc3OC)c2)cc1 | inactive: 5.03% |
| O=C(NC(=S)NCCc1ccccc1)C1CCCCC1 | inactive: -7.03% |
| NC(=O)Cc1ccc(C(=O)CSc2nnc(-c3ccncc3)n2C2CC2)s1 | inconclusive: -54.2% |
| COc1ccc(C)cc1NC(=O)C(Sc1nnc(Nc2cc(C)ccc2OC)s1)c1ccccc1 (stereo not drawn) | inactive: -36.2% |
| CNC(=S)N1CCN(c2c(F)cc3c(=O)c(C(=O)O)cn(C4CC4)c3c2OC)CC1C (stereo not drawn) | inactive: 5.69% |
| CN1/C(=C\C(=O)c2ccco2)C(C)(C)c2ccccc21 | active: -85.5% |
| O=C1CCSC2(C(=O)N(Cc3ccc(F)cc3)c3ccccc32)N1c1ccccc1 (stereo not drawn) | active: -62.3% |
| Cc1c2cnn(CC(=O)Nc3c(F)c(F)cc(F)c3F)c(=O)c2c(C)n1Cc1ccccc1F | inconclusive: -41.2% |

| SMILES | activity change, negative = inhibition |
| --- | --- |
| CN1CCN(CCCN2c3ccccc3Sc3ccc(Cl)cc32)CC1 | inconclusive: -48.1% |
| Cc1ccc(C)n1-n1c(C)nc2sc3c(c2c1=O)CCCCC3 | inconclusive: -59.8% |
| N/C(=N\OC(=O)c1cccs1)c1cccc(Br)c1 | inconclusive: -47.5% |
| CS(=O)(=O)N(CC(=O)N1CCOCC1)Cc1ccc(Cl)cc1 | inactive: -4.4% |
| Oc1c(/C=C/C=C/C=Nc2ccccc2)sc(=S)n1Cc1ccccc1 | inconclusive: -55% |
| NNc1nncc2ccccc12 | inactive: 3.9% |
| CCOc1ccc2[nH]c3c(NCCC(C)C)ncnc3c2c1 | inconclusive: -42.6% |
| CC(C)Oc1ccc(CCNC(=O)C2CCC(=O)N(C3CCCCCC3)C2)cc1 (stereo not drawn) | inactive: -5.31% |
| CC1=NNC(=O)C1CCC(=O)N/N=C\c1ccc(Cl)c(Cl)c1 (stereo not drawn) | inconclusive: -41.5% |
| COc1ccc(CC(=O)O/N=C(\N)c2ccc(C)cc2)cc1 | inconclusive: -46.6% |
| O=C1CC(c2ccccc2)(c2ccccc2)c2ccccc21 | inconclusive: -49.8% |
| CCCC(=O)N1CCN(c2ccc(NC(=O)c3ccc([N+](=O)[O-])o3)cc2Cl)CC1 | inactive: 13.5% |
| CCOC(=O)c1c(C)n(-c2ccc(C)cc2)c2ccc(O)c(CN(C)C)c12 | inconclusive: -45.2% |
| Cc1ccc(C)c(N2CCN(C(=O)c3ccc(Cn4c(=S)[nH]c5ccc(N6CCOCC6)cc5c4=O)cc3)CC2)c1 | inconclusive: -41.5% |
| CC(C)(C)c1ccc(NC(=S)NCc2cccnc2)cc1 | inactive: 8.04% |
| CCn1nc(C(=O)N2CCN(Cc3nc4ccccc4s3)CC2)c2ccccc2c1=O | inconclusive: -41.4% |
| CNC(=O)CSc1nnc(-c2ccc(S(=O)(=O)N3CCCC3)cc2)n1-c1cccc(C)c1C | inactive: 13.3% |
| Cc1[nH]c(=S)c(C#N)c(C)c1CC(=O)c1ccc(Br)cc1 | active: -70.2% |
| N#Cc1c(N2CCN(C(=O)c3ccccc3)CC2)nc(-c2ccccc2)c2c1CCCC2 | inactive: -19.9% |
| Cc1cc(-c2csc3nc[nH]c(=S)c23)cc(C)c1C | inconclusive: -53.3% |
| O=C(Nc1ccc(C(=O)O)cc1)/C(=C\C=C\c1ccccc1)NC(=O)c1ccccc1Br | inactive: -7.59% |
| O=C(CSc1nnc(N2CCCC2)n1-c1ccccc1Cl)N1CCN(c2ccccn2)CC1 | inactive: -1.14% |
